Test results reported in the supplement of paper PMC6135742.
Where “and” joins values, the source holds several entries; their conditions need not be identical. Equal values may be shown once. Where a name gives a salt, the structure may show the parent alone. ± gives the standard deviation of the averaged measurements. Over roughly 2,600 compounds, “MBP+ mature oligodendrocyte number relative to DMSO vehicle control” has its median near -0.34; the highest 2% begin near 13. This is one part of the list.

Each compound was assayed on jimpy (Plp1 jimpy) mouse iPSC-derived oligodendrocyte progenitor cells (assay: MBP+ mature oligodendrocyte number relative to DMSO vehicle control (SDs above negative control mean); higher = more surviving jimpy oligodendrocytes (rescue)). Conditions: 10 µM; 3 days.
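Also: 10 µM single dose with 3-day oligodendrocyte differentiation.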

Structure (SMILES)	MBP+ mature oligodendrocyte number
OCc1ccc(-c2ccc(-c3ccc(CO)s3)o2)s1	-5.93
O=C(O)c1ccc(Nc2ncc3c(n2)-c2ccc(Cl)cc2C(c2c(F)cccc2F)=NC3)cc1	-3.12
Cc1cc(N2CCOCC2)ccc1Nc1nc(NC2CCCCC2)c2[nH]cnc2n1	-1.7
C[C@H](NC(=O)Cc1cc(F)cc(F)c1)C(=O)N[C@@H]1C(=O)N(C)c2ccccc2-c2ccccc21	-2.44
COC(=O)[C@H]1[C@H]2C[C@@H]3c4[nH]c5cc(OC)ccc5c4CCN3C[C@H]2C[C@@H](OC(=O)c2cc(OC)c(OC)c(OC)c2)[C@@H]1OC [Reserpine]	-1.38 ± 2.8
COc1cc2c(cc1OC)-c1cc3ccc(OC)c(OC)c3c[n+]1CC2 [Palmatine chloride]	11.4
CC(C)C[C@H](NC(=O)[C@@H](O)[C@H](N)Cc1ccccc1)C(=O)O [Bestatin hydrochloride]	-1.3
O=C(O)CN(CCOCCOCCN(CC(=O)O)CC(=O)O)CC(=O)O	-0.282
C=CCc1ccc(O)c(-c2ccc(O)c(CC=C)c2)c1 [Honokiol]	0.731
CNC(=C[N+](=O)[O-])NCCSCc1ccc(CN(C)C)o1 [Ranitidine hydrochloride]	-0.354
CNC(=C[N+](=O)[O-])NCCSCc1ccc(CN(C)C)o1 [Ranitidine]	3.04
COC(=O)c1ccc2c(c1)NC(=O)/C2=C(\Nc1ccc(N(C)C(=O)CN2CCN(C)CC2)cc1)c1ccccc1 [Nintedanib (BIBF 1120)]	-6.61
O=C(O[C@@H]1Cc2c(O)cc(O)cc2O[C@@H]1c1cc(O)c(O)c(O)c1)c1cc(O)c(O)c(O)c1 [(-)-Epigallocatechin Gallate]	-0.668
CC(C)C[C@H](NC(=O)CNC(=O)c1cc(Cl)ccc1Cl)B(O)O	< -4.81
N#C[C@@H]1CCCN1C(=O)CNC12CC3CC(CC(O)(C3)C1)C2 [Vildagliptin (LAF-237)]	2.17
[Cl-].[Li+] [Lithium Chloride]	1.13
CCOc1ccn(-c2ccc(F)cc2)c(=O)c1C(=O)Nc1ccc(Oc2ccnc(N)c2Cl)c(F)c1	1.6
CCn1cc(-c2ccnc3[nH]c(-c4cccc(CN(C)C)c4)cc23)c(-c2ccc(NC(=O)N(C)C)cc2)n1	-5.93
CCCCCCN(CCCCCC)C(=O)Cc1c(-c2ccc(F)cc2)[nH]c2ccccc12 [N,N-Dihexyl-2-(4-fluorophenyl)indole-3-acetamide]	6.15
CCN(CC)CCNC(=O)c1ccc(NC(C)=O)cc1 [N-Acetylprocainamide hydrochloride]	0.353
N[C@@H]1CN(c2c(F)cc3c(=O)c(C(=O)O)cn([C@@H]4C[C@@H]4F)c3c2Cl)CC12CC2 [Sitafloxacin Hydrate]	1.74

Structure (SMILES)	MBP+ mature oligodendrocyte number
CC(=O)NNC(=O)N1Cc2ccccc2Oc2ccc(Cl)cc21	-0.497
CNC[C@H](O)c1cccc(O)c1 [Phenylephrine HCl]	-0.948
CNC[C@H](O)c1cccc(O)c1 [Phenylephrine hydrochloride]	< -3.97
CCN(CC)CCn1c(=O)c(Cc2ccc(OC)cc2)nc2ccccc21 [Caroverine hydrochloride]	-0.211
CO[C@H]1C[C@@H]2CC[C@@H](C)[C@@](O)(O2)C(=O)C(=O)N2CCCC[C@H]2C(=O)O[C@H]([C@H](C)C[C@@H]2CC[C@@H](O)[C@H](OC)C2)CC(=O)[C@H](C)/C=C(\C)[C@@H](O)[C@@H](OC)C(=O)[C@H](C)C[C@H](C)/C=C/C=C/C=C/1C [Rapamycin (Sirolimus)]	-5.74
Nc1nc2ccc(Cl)cc2n2c(-c3ccccc3)nnc12	0.304
COc1cc2ncnc(Nc3ccc(Cl)cc3F)c2cc1OC	-2.75
CNc1cc(NS(=O)(=O)c2ccc(N)cc2)nc(NC)n1 [Ro 04-6790 dihydrochloride]	1.72
Oc1ccc(Nc2nc(-c3ccc(Cl)cc3)cs2)cc1	< -6.35
Cc1ccc(C(=O)NCCCCCC(=O)Nc2ccccc2N)cc1	-5.76
N#Cc1ccc2[nH]c(O)c(-c3ccc(CN4CCOCC4)cn3)c2c1	-6.1
CCN(CC)CCCC(C)Nc1c2ccc(Cl)cc2nc2ccc(OC)cc12 (stereo not drawn) [Quinacrine dihydrochloride]	< -3.85
CCN(CC)CCCC(C)Nc1c2ccc(Cl)cc2nc2ccc(OC)cc12 (stereo not drawn) [Quinacrine 2HCl]	-5.34
CC(C)(C)NS(=O)(=O)c1cncc(-c2cc(F)c3nc(N)nn3c2)c1	4.04
O=C(O)P(=O)(O)O [Foscarnet Sodium]	-1.56
C#C[C@]1(O)CC[C@H]2[C@@H]3CCc4cc(OC)ccc4[C@H]3CC[C@@]21C [Mestranol]	12.8
CC1=C(C)C(=O)C(CCCCC#CCCCC#CCO)=C(C)C1=O	1.33
CN(C)C(=O)c1ccc(S(=O)(=O)c2ccc(NC(=O)[C@@](C)(O)C(F)(F)F)c(Cl)c2)cc1	19.5
COc1ccc2cccc(CCNC(C)=O)c2c1 [Agomelatine]	-0.795 ± 0.94
COc1cc(C=O)ccc1O [Vanillin]	4.47
C1=N/C2=N/c3ccc(OCCN4CCCC4)c(c3)COC/C=C/COCc3cccc(c3)C(=C1)N2 [Pacritinib (SB1518)]	-4.64

Structure (SMILES)	MBP+ mature oligodendrocyte number
Cc1[nH]c(/C=C2\C(=O)Nc3ccccc32)c(C)c1CCC(=O)O [TSU-68 (SU6668, Orantinib)]	0.371
CN(CCOc1ccc(NS(C)(=O)=O)cc1)CCc1ccc(NS(C)(=O)=O)cc1 [Dofetilide]	9.42 ± 4.5
CC(=O)N1CCN(c2ccc(OCC3COC(Cn4ccnc4)(c4ccc(Cl)cc4Cl)O3)cc2)CC1 (stereo not drawn) [Ketoconazole]	9.85 ± 9
CC(C)NC[C@H](O)COc1ccc(CCOCC2CC2)cc1 [Levobetaxolol HCl]	9.7
COC(=O)C1=C(C)NC(C)=C(C(=O)OC)C1c1ccccc1[N+](=O)[O-] [Nifedipine]	1.28 ± 1.1
CNC(=O)[C@H]1O[C@@H](n2cnc3c(NCc4ccc(N)cc4)ncnc32)[C@H](O)[C@@H]1O	-0.825
COc1cc(N2CCN(C)CC2)ccc1Nc1nccc(-c2cn(C)c3cnccc23)n1	-6.27
COc1cc2c(cc1O)CC[C@@H]1[C@@H]2CC[C@]2(C)[C@@H](O)CC[C@@H]12 [2-Methoxyestradiol (2-MeOE2)]	1.16
COc1cc2c(cc1O)CC[C@@H]1[C@@H]2CC[C@]2(C)[C@@H](O)CC[C@@H]12 [2-methoxyestradiol]	-1.15
Clc1ccccc1CN1CCc2sccc2C1 [Ticlopidine HCl]	18.4
Nc1ccc(O)c(C(=O)O)c1 [Mesalamine]	-4.97
O=C1NC(=O)/C(=C\c2ccc3nccnc3c2)S1	-0.833
CN(C)CCCN1c2ccccc2CCc2ccc(Cl)cc21 [Clomipramine hydrochloride]	-3.26
CN(C)CCCN1c2ccccc2CCc2ccc(Cl)cc21 [Clomipramine HCl]	-4.64
COC(=O)N1CCN(Cc2cccc(NC(=O)Nc3ccc(C)nc3)c2F)CC1	2.49
CC(C)[C@H](C(=O)Nc1ccc(C(=O)NO)cc1)c1ccccc1	< -4.81
C#C[C@]1(OC(C)=O)CC[C@H]2[C@@H]3CCC4=C[C@@H](OC(C)=O)CC[C@@H]4[C@H]3CC[C@@]21C [Ethynodiol diacetate]	6.45
Nc1ccc(S(=O)(=O)Nc2ncccn2)cc1 [Sulfadiazine]	3.13
C=CCc1cc(OC)c(O)c(C(=O)NCCO)c1 [Alibendol]	-2.09
C#C[C@]1(O)CC[C@H]2[C@@H]3CCC4=CC(=O)CC[C@@H]4[C@H]3CC[C@@]21C [Norethindrone]	6.57
COc1cc2c(CCNC(C)=O)c[nH]c2cc1O [6-Hydroxymelatonin]	0.555

Structure (SMILES)	MBP+ mature oligodendrocyte number
Cc1ccccc1/C=C/C1=NCCN1 [Metrazoline oxalate]	-0.755
NC1(c2ccc(-c3nc4ccn5c(=O)[nH]nc5c4cc3-c3ccccc3)cc2)CCC1	-6.52
COc1ccc(CCN(C)CCc2ccc(OC)c(OC)c2)cc1OC [YS-035 hydrochloride]	-0.0327
CC[N+](CC)(CC)CC [Tetraethylammonium chloride]	1.57
NC(=O)c1noc([C@H](CCCC2CCCCC2)CC(=O)NO)n1	-0.108
Cc1cccc(-c2[nH]c(C(C)(C)C)nc2-c2ccc3nccnc3c2)n1	-3.91 and -3.66
Clc1ccc2c(c1)N=C(N1CCNCC1)c1ccccc1N2 [N-Desmethylclozapine]	-4
O=C1NC(=O)/C(=C/c2ccc(-c3ccc(F)cc3O)o2)S1	-3.65 ± 1.8
CC(C)CCN1c2nc(Nc3cc(F)c(O)c(F)c3)ncc2N(C)C(=O)C1C (stereo not drawn)	< -6.01
Cc1cnc(Nc2ccc(N3CCN(C)CC3)cc2)nc1Nc1cccc(S(=O)(=O)NC(C)(C)C)c1	-5.93
OC[C@@H](O)[C@@H](O)CO [Erythritol]	-0.0158
CC(=O)Oc1cc(C(F)(F)F)ccc1C(=O)O [Triflusal]	-0.242 ± 1.3
N=c1ccn2c(n1)O[C@H]1[C@H](O)[C@@H](CO)O[C@H]12 [Cyclocytidine HCl]	-1.01
N=c1ccn2c(n1)O[C@H]1[C@H](O)[C@@H](CO)O[C@H]12 [Ancitabine hydrochloride]	-1.69
C[N+](C)(C)CCO.[Br-] [Choline bromide]	-0.983
CNC(=O)c1ccc2cc([C@@]3(O)CCn4cncc43)ccc2c1 [TAK-700 (Orteronel)]	0.371
CCCCCCCC/C=C\CCCCCCCC(=O)NCc1ccc(O)c(OC)c1 [Olvanil]	-3.62
O=c1[nH]cc(F)c(=O)[nH]1 [Fluorouracil (5-Fluoracil, 5-FU)]	< -6.7
O=c1[nH]cc(F)c(=O)[nH]1 [5-Fluorouracil]	< -4.47
C[C@]12C=CC(=O)C=C1CC[C@@H]1[C@@H]2[C@@H](O)C[C@@]2(C)[C@H]1CC[C@]2(O)C(=O)CO [Prednisolone]	7.54
